From PubChem BioAssay AID485313 (National Center for Advancing Translational Sciences (NCATS), 2010)
Hit rate of the full screen: of about 320,000 compounds, about 7,600 (2.4%) were called active. This list was built around the results that the source calls inconclusive (neither active nor inactive); the mix of calls is not that of the screen. The call rests on the fitted dose curve; in most records, active means well fitted activation curve with a large enough effect; inconclusive means small, poorly fitted or top-dose-only effect; inactive means no such curve, though single readings can be large or run the other way. Potencies beside an inconclusive call are fits to weak or partial responses and may not hold up.

Assay: qHTS Assay for NPC1 Promoter Activators; further: nearly all actives have a fitted effect of over 60% in size;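 on activation: reporter is driven by a mutant NPC1 promoter; % of control where 0% means no effect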
Conditions: Huh7 NPC1 promoter luciferase reporter, 24 h; series mostly up to 9.22 µM; activation: at the top concentration
Outline: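 In 1536-well qHTS, Huh7 cells harboring an NPC1 promoter–luciferase construct received compound for 24 h; activation was quantified by luminescence following luciferase reagent addition.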
Potency means the concentration at half of the fitted maximal effect; tags describe the fitted curve by direction and shape.

Potency, active:
O=[N+]([O-])c1ccc2nc(-c3ccc(OC(F)F)cc3)cn2c1 1 µM
Cc1c(C(=O)Nc2cccc(F)c2)cnn1-c1ccccc1 1.58 µM
N#Cc1cc2c(nc1SCc1nc3ccccc3[nH]1)CCC2 0.316 µM
O=C(Nc1ccc(Cl)cc1Cl)c1ccc2c(c1)OCCO2 0.398 µM
c1ccc2oc(-c3csc(N4CCOCC4)n3)cc2c1 1.26 µM
Cc1ccc(NC(=O)N/C=C/c2ccccc2)cc1 0.891 µM
COc1ccc(NC(=O)Nc2ccccc2F)cc1 0.562 µM
COc1ccc2c(c1)O/C(=C\c1ccco1)C2=O 4.47 µM
Oc1[nH]c(N=C2N=c3ccccc3=N2)c2ccccc12 3.16 µM
O=C(Nc1nc2ccccc2s1)NC1CCCCC1 1.41 µM
CC1CCC(NC(=O)c2ccc(NC(=O)CC3SC(N4CCCC4)=NC3=O)cc2)CC1 (stereo unspecified) 2.51 µM

Potency, inconclusive:
Cc1nc(C)c(C(=O)Nc2ncc([N+](=O)[O-])s2)o1 0.126 µM [activator, full curve]
O=C(Oc1cccc(-c2cnc3ccccc3n2)c1)c1ccco1 3.98 µM [activator, single point]
COc1cc2ccccc2cc1C(=O)Nc1ccccc1Cl 6.31 µM [activator, single point]
O=C(CCc1ccccc1)Nc1ccc(NC(=O)c2ccco2)nc1 2.24 µM [activator, partial curve]
Cc1ccc(Nc2nc(/N=C/N(C)C)n[nH]2)cc1C 3.16 µM [activator, single point]
COc1cc(NC(=O)c2cccc(Br)c2)nc(OC)n1 3.55 µM [activator, single point]
CNC(=O)/C(C#N)=C/c1ccc(-c2ccc(Cl)cc2)o1 3.16 µM [activator, partial curve]
CCOc1cccc2cc(C(=O)NCc3ccccc3Cl)c(=O)oc12 5.62 µM [activator, single point]
O=C(Nc1ccccc1)N(O)c1ccc(Cl)cc1 2.24 µM [activator, partial curve]
O=C1C=C(c2ccc(C(=O)O)cc2)C[C@@H](c2ccc3c(c2)OCO3)C1 3.55 µM [activator, partial curve]
O=C(Cc1ccc(-c2ccccc2)cc1)Nc1ncccc1O 3.16 µM [activator, single point]
Cc1cnc(NC(=O)c2ccc3c(c2)OCCO3)s1 0.631 µM [activator, partial curve]
N=C1C(c2nc3ccccc3[nH]2)=C(O)CN1c1ccc(F)cc1 3.55 µM [activator, single point]
Cc1ccc(NC(=O)C2CCCN(c3ncccn3)C2)cc1C (stereo unspecified) 3.16 µM [activator, partial curve]
Cc1cccc2cc(-c3nc4ccc(C(=O)O)cc4[nH]3)c(=O)oc12 0.1 µM [activator, full curve]
CC1CCCN(c2ccc(C(=O)NCC3CCCO3)cn2)C1 (stereo unspecified) 3.55 µM [activator, single point]
Fc1ccccc1CSc1nc2ncc(Br)cc2[nH]1 4.47 µM [activator, partial curve]
CCN(CC(=O)NCc1ccc(F)cc1)C(=O)c1ccc(COc2ccccc2)cc1 3.55 µM [activator, single point]
CC(=O)N(/N=C/c1ccc(C)cc1)c1nc(CCl)cs1 3.16 µM [activator, single point]
CCNC(=O)NC(=O)COc1ccccc1C#N 3.98 µM [activator, single point]
O=C(Nc1ccc(N2CCCCC2)c(Cl)c1)c1ncn[nH]1 0.708 µM [activator, single point]
Cc1ccc(Nc2nnc(-c3ccc4c(c3)OCO4)o2)c(C)c1 3.55 µM [activator, partial curve]
O=C(c1ccc2nc(Cc3cccc(Cl)c3)oc2c1)N1CCOCC1 3.98 µM [activator, partial curve]
CC(C)Sc1nc(SCC(=O)O)c2c3c(sc2n1)COC(C)(C)C3 3.16 µM [activator, partial curve]
CSc1ccccc1C(=O)Nc1ccc(C)c(C)c1 3.16 µM [activator, single point]
CCC(C)N1C(=O)S/C(=C/c2ccc(N3CCOCC3)cc2C)C1=O (stereo unspecified) 5.62 µM [activator, single point]
CCOC(=O)c1c(C)oc2c1c1c(c3ccccc32)OCN(CCCC(=O)O)C1 5.62 µM [activator, single point]

activation, inactive:
O=C(CSc1ncccn1)N/N=C/c1ccc2c(c1)OCO2 26.2%
O=C(Cn1nnc(-c2cccs2)n1)NNC(=O)c1ccccc1Cl -8.88%
CCSc1nc(-c2cccnc2)ccc1C#N -3.51%
Cc1c(C)n(C(=O)CSc2ncn[nH]2)c2ccccc12 0.334%
COC(=O)Cc1[nH]n(-c2nc3ccccc3s2)c(=O)c1C(C)=Nc1ccc(Cl)cc1 -44.3%
Cc1ccccc1C(=O)NC(=S)Nc1cccc(NC(=O)C(C)C)c1 1.16%
COc1ccc(C(=O)N2CCN(c3ccc(C)cc3)CC2)cc1OC 1.67%
NS(=O)(=O)c1ccc(NC(=O)COC(=O)/C(=C/c2cccs2)c2cccs2)cc1 -0.169%
N#C/C(=C\c1ccccc1[N+](=O)[O-])C(=O)NCc1ccccc1 -3.41%
COc1cccc(CN2CCNC(=O)C2CC(=O)N(C)CC2CCOCC2)c1 (stereo unspecified) -5.21%
O=C(COC(=O)C1C2CC3OC(=O)C1C3C2)Nc1cccc(Cl)c1 (stereo unspecified) 0.583%
O=[N+]([O-])c1c(Nc2ccc(O)cc2)cc(N2CCOCC2)c2nonc12 -3.84%
CC/C(C)=N/Oc1nc(C)cc(C)n1 2.85%
